Data from PMC4336329 (PLoS ONE, 2015).
In all, about 310,000 compounds went through this assay and about 2,200 (0.71%) showed an effect of 50% or more. Effects have a minus sign here. The list shows a part of the results.

target: human ether-à-go-go-related gene (hERG) potassium channel (human, UniProt Q12809); assay: primary screen, population patch clamp on CHO cells stably expressing hERG
Sequence (Q12809 whole entry, looked up): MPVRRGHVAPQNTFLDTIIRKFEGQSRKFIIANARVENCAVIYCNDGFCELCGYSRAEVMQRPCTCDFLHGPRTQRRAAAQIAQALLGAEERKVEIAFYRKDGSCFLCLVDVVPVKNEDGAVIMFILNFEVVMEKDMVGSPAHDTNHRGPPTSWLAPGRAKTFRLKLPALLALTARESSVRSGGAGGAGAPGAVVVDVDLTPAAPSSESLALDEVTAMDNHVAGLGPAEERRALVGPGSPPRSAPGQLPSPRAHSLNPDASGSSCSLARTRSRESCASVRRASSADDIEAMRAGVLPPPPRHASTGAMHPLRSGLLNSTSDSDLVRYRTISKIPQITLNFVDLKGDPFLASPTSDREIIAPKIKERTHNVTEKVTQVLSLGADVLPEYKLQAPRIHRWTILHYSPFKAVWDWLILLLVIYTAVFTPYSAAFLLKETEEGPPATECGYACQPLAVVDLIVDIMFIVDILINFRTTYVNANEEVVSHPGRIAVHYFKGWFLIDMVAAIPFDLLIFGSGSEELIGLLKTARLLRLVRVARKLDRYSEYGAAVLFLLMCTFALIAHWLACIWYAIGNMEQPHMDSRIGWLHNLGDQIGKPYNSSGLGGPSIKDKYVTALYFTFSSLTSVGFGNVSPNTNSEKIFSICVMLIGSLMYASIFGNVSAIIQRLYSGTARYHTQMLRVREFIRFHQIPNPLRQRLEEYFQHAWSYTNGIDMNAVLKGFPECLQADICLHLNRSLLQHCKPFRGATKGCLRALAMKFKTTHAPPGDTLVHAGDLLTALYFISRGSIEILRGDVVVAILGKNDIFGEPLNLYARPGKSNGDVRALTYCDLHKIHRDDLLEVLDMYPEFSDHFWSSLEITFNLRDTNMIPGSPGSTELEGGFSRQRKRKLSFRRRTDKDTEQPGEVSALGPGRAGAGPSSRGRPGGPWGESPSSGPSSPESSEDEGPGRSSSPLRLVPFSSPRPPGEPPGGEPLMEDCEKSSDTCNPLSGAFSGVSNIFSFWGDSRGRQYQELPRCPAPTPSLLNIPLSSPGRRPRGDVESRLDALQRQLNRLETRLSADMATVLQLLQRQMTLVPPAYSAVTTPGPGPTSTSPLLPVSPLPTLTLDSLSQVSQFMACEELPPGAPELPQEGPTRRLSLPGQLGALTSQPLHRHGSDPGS

| SMILES | hERG current change (%, negative = inhibition) at 1uM |
| --- | --- |
| Cn1c(=O)cc(SCC(=O)N2CCN(C3CCCCC3)CC2)c2ccccc21 | -3.36% |
| COc1cc2ccccc2cc1C(=O)OCC(=O)NC1CCS(=O)(=O)C1 (centres unmarked) | 2.02% |
| Cc1c(Cl)cccc1N1CC(C(=O)Nc2nccs2)CC1=O (centres unmarked) | 7.24% |
| O=C(COC(=O)CNC(=O)c1ccc(Cl)cc1Cl)NCc1ccco1 | 4.96% |
| Cc1cc(C)cc(NC(=O)NCC2CCN(Cc3cc(C)ccc3C)CC2)c1 | -2.94% |
| O=C(NCCCN1CCOCC1)C(=O)N/N=C/c1c2ccccc2cc2ccccc12 | 8.07% |
| NS(=O)(=O)c1ccc(N/N=C/c2cn(-c3ccccc3)nc2-c2ccccc2)c([N+](=O)[O-])c1 | 12.3% |
| O=C(CN1CCCCCC1)Nc1cccc([N+](=O)[O-])c1 | 7.71% |
| COc1ccc(OC)c(/C=N\NC(=O)c2ccc(=O)n(C)c2)c1 | 5.17% |
| Cc1cccc(-c2c3c(nc4c2c(=O)n(C)c(=O)n4C)-c2ccccc2C3O)c1 (centres unmarked) | 10.7% |
| CS(=O)(=O)N(CC(=O)N1CCN(Cc2ccccc2)CC1)c1ccc2c(c1)OCCO2 | 6.03% |
| Cc1cccc(-n2nc3c(c2NC(=O)c2cc4ccccc4o2)CS(=O)(=O)C3)c1 | 0.99% |
| Fc1ccccc1-c1[nH]ncc1-c1nnnn1-c1ccccc1 | 8.83% |
| CCCNC(=S)Nc1ccc(Br)cc1 | 10.8% |
| CCn1cc(Cl)c(C(=O)Nc2cccc(CN3CCOCC3)c2)n1 | 13.2% |
| CCCC(O)(CCC)C(=O)NN(C(=O)CCl)c1ccccc1 | 5.88% |
| O=C(c1ccccn1)N1CCN(S(=O)(=O)c2ccccc2)CC1 | 10.2% |
| Cc1nc2sccn2c(=O)c1S(=O)(=O)NCCc1ccc(Cl)cc1 | 18.6% |
| CCN(CC)S(=O)(=O)c1cccc(-c2nnc(SCC(=O)c3ccc(Cl)s3)n2C)c1 | 5.39% |

| SMILES | hERG current change (%, negative = inhibition) at 1uM |
| --- | --- |
| Cc1cccc(NC(=S)N2CCN(c3ccccn3)CC2)c1 | 9.17% |
| Cc1ccc(C(C)NC(=O)c2cc3cc(Br)ccc3oc2=N)cc1 (centres unmarked) | 1.91% |
| CCc1c(C(=O)NC2CCCC2)csc1C | -4.98% |
| CC(C)Nc1nc(Oc2cccc(Cl)c2Cl)cc(C(F)(F)F)n1 | 12.9% |
| O=C(NCc1ccco1)C1CC(c2cccc([N+](=O)[O-])c2)=NO1 (centres unmarked) | -5.75% |
| COc1ccccc1C(=O)NC(=O)CSc1nc(C)cs1 | 14.7% |
| CCC(C)[C@H](NC(=O)NCc1cccs1)C(=O)OC (some centres unmarked) | 6.99% |
| COc1ccc(C)cc1NC(=O)C1CC1c1ccccc1 (centres unmarked) | 5% |
| COc1ccc(CC(=O)NC2CCSc3ccccc32)cc1OC (centres unmarked) | 10.2% |
| COc1ccc(-c2nc(CSCC(=O)NC3CCN(Cc4ccccc4)CC3)c(C)o2)cc1OC | 1.98% |
| O=C(Nc1cc(Cl)ccc1N1CCOCC1)c1ccc(N2CCCC2=O)cc1 | 7.06% |
| COC(=O)Cn1c(=NC(=O)CSCC(=O)Nc2cc(C)on2)sc2cc(C(=O)OC)ccc21 | 8.35% |
| C=CCn1c(SCC(=O)Nc2cc(C)on2)nc2sc3c(c2c1=O)CCCC3 | -0.954% |
| CC1C(=O)O[C@@H]2C[C@@H](C)[C@@H]3CCC(=O)[C@@]3(C)[C@@H](O)[C@H]12 (some centres unmarked) | 9.74% |
| CCCCNC1c2ccccc2C(=O)N1Cc1ccccc1.Cl (centres unmarked) | 14% |
| COc1cc(CC(=O)OCC(=O)Nc2sccc2C(N)=O)cc(OC)c1OC | 19% |
| COc1cc(/C=N/N2CCOCC2)ccc1OCc1ccccc1 | 14.8% |
| COCCNC(=O)NC(=O)CSc1nc(C)c(C)c(C)n1 | 5.2% |
| COc1cc(/C=C2\SC(=S)N(NS(=O)(=O)c3ccc(C)cc3)C2=O)cc(OC)c1OC | 9.52% |

| SMILES | hERG current change (%, negative = inhibition) at 1uM |
| --- | --- |
| COc1cc(OC)cc(C(=O)NC(C(=O)Nc2ccc3c(c2)OCO3)C(C)C)c1 (centres unmarked) | 13.5% |
| CN(C)S(=O)(=O)n1cc(/C=C(\NC(=O)c2ccccc2Cl)C(=O)N2CCOCC2)c2ccccc21 | 13.6% |
| CCOC(=O)c1cccc(N2C(=O)Nc3ccccc3N2O)c1 | 5.42% |
| COc1ccc(CCC(=O)Nc2ncc(C)s2)cc1 | 8.76% |
| Cc1nonc1C(=O)N/N=C/c1ccccc1 | 15.8% |
| O=C(O)C(=O)O.OCC1CCCCN1CC(O)COC(c1ccc(F)cc1)c1ccc(F)cc1 (centres unmarked) | -60.9% |
| Cc1cc(C)nc(N/N=C/c2ccccc2OCc2ccc(Br)cc2)n1 | 24.4% |
| C=CCc1c(C)nc(SC)nc1Nc1ccc(C(=O)O)cc1 | 6.6% |
| Cc1cc(C)n(CCN(C)C(=O)c2cc(COc3c(F)cccc3F)on2)n1 | 9.28% |
| CCOC(=O)/C=c1\s/c(=C\c2ccc(C#N)cc2)c(=O)n1CC(=O)Nc1cccc(C)c1C | 12.2% |
| N#C/C(=C\c1c(N2CCCCC2)nc2ccccn2c1=O)C(=O)NCc1ccco1 | -1.26% |
| O=C(Cn1nnc(-c2ccccc2)n1)NNC(=O)c1ccc(Br)cc1 | 13.4% |
| COc1cc2nc(CCc3ccccc3)oc(=O)c2cc1OC | 3.38% |
| O=C(CSC1=NC2(CCCCCC2)N=C1c1ccccc1)Nc1ccc2c(c1)OCCO2 | -3.79% |
| COc1ccc(/C=C/C(=O)c2ccncc2)c2ccccc12 | 6.8% |
| Nc1cccc(-c2nc3ccc(N)cc3s2)c1 | 3.6% |
| CSc1cccc(CN(C)C(=O)C2CCC(=O)N(CCCN3CCCC3=O)C2)c1 (centres unmarked) | 14.4% |
| Cc1ccccc1OCC(=O)Nc1ccc(N2CCN(C(=O)c3ccco3)CC2)cc1 | 2.21% |
